Reference: the supplement of paper PMC3724861
The other results are listed elsewhere or left out.

Tested on: T1, Caupolican (Caup) homeodomain DNA-binding domain
T1 sequence: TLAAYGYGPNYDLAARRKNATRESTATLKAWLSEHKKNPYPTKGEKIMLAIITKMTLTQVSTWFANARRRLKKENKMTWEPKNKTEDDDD
Assay: PBM E-score (8-mer, recovered from the published 9-mer minima) (E-score (dimensionless, -0.5 to 0.5)); Drosophila protein; higher = stronger relative binding preference, active = 0.31 or more
Procedure, shortened: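 An enrichment score, with higher meaning stronger, expresses relative binding preference for each short DNA word. The protein used was Caup's homeodomain DNA-binding domain (residues 214-303), produced by in vitro transcription and translation and tested at 100 nM on custom-designed protein binding microarrays. The 8-mer values were recovered from published 9-mer scores, each equal to the lower of its two constituent 8-mer scores.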

PBM E-score, ≥ 0.156:
TAGTAAGA

PBM E-score, ≥ 0.076:
AGCGTAAT

PBM E-score, active:
ATAGACAT 0.321
CATGTATC 0.408
AGAACATG 0.406
ATGTCATA 0.4
ATTACAAC 0.37
AGTACACA 0.342
ATACATGG 0.422
ATCGTGTC 0.336
GTTGTTTA 0.343
GTGTTGTA 0.395

PBM E-score, ≥ 0.179:
ACACTCAT

PBM E-score, ≥ 0.176:
ACTTATAT

PBM E-score, ≥ 0.0548:
TCGTCGAA

PBM E-score, inactive:
AGTCTTCA -0.0246
ATCCACAG 0.0805
ATTATGAG 0.0589
CTGCGTTA -0.0927
AACCAAAT 0.0931
GATTGCCA -0.0923
GGAGACCC -0.185
CTTCGGCC -0.184
GCATGACA 0.21
GATTTAGC -0.028
TCCAGTCA -0.102
AGGATGTG 0.0836
ACGGGCCG -0.194
CGGCTGCC -0.224
TAAACCAA 0.0726
ATTTACTC 0.089
GCCCTTCA -0.139
TGCTTAAA 0.0562
AGGTCGGA -0.0713
GACGTCCC -0.115
CGGTATCA 0.116
CCAACGGG -0.138
AATGAAGA 0.0411
GGCCCGCA -0.246
CCTTCCAG -0.176
AGATGCCA -0.0951
CTTATCTA 0.0324
ATGCGAAA 0.0128
AGTGGGAC 0.0245
ATAAGTAG 0.12
ACACAGGT 0.208
CACAAGGG -0.00024
AGGTGGCC -0.286
AGCCGCGC -0.217
AGAGCGTG -0.0713
CCATGACC -0.0875
GAGTCTTA -0.00861
GGTCTCCA -0.147
CCTTGACG -0.172
AATTACGA 0.15
CTGCTCCA -0.0249
AGCTTTTG -0.0319
GTTCTAGA 0.0782
GCCACCAA -0.183
CACACCAA 0.0617
AATCGACA 0.254
ATTGCGAG -0.11
AGCTACCT -0.00471
TCTGGGAA -0.0866
TATTTTCA 0.11
ACTCGTCG -0.00807
CAATGCGG -0.101
AAGTATAG -0.0316
CCTAGTTC -0.0119
ACTCAGGG -0.0697
CGAGCGCG -0.161
GGACACAC 0.162
CACTAGGG -0.165
AGTACAAC 0.275
ATTTTCAA 0.0067
ACATAGAA 0.249
CCAGATCG -0.0534
CGCAACAG -0.0246
CCCACTTA -0.063
CGTTCCGC -0.0996
GCTCCCAC -0.209
AGCTGCCA -0.108
CAAACTAC 0.207
CAGCCCTG -0.154
ACTTCCTC -0.0868
CTGGATTC 0.0143
CTTTGATC -0.0179
CACTAAAG -0.125
TAAAGGTA 0.0487
ATACCTCA 0.0223
CAGCGGAC -0.187
AAGACAAA 0.061
AGATTGTG 0.0711
ATTTGCTC 0.0542
CAGCTACC -0.0456
CAATCCGG -0.0921
ATTGCTCA 0.0739
AACTGCAC -0.00808
AACAGCTG 0.0661
GCTGAAGA -0.0212
AGAGAAAG -0.103
CGACGCAG -0.075
TCCCGTAA -0.00085
ATGTCAGG 0.209
CCCGAGGA -0.126
ATTGTTTC 0.143
CCACTTCG -0.151
CAACTGTA 0.183
GCTTTCGA -0.13
TCTCGACA 0.133
CTGGTTTA 0.0707
CACCTAAC -0.0298
CAAAGCAG -0.0771
AAAGCCCC -0.238
CTCTGTGC -0.0962
CAAAAGAA 0.0424
CCATGCTC -0.00716
CTTGTCTC 0.139
CAAGATTA 0.131
CGGTGTTC 0.157
CTTTGATA 0.0524
AGGAGGAG -0.188
ACAGGCGT -0.013
ATCTTTAA 0.00575
AAACTTTC -0.0217
AAGGAGCC -0.22
AGGGGCGC -0.248
AAACAATC 0.115
ATCAGAGG -0.0911
ACGTGAGG -0.00217
ATTAATGA 0.184
CGCTTGAA 0.0019
CAATCCCA -0.0862
ATGCTGGG -0.069
GAGATGCA -0.024
GGTACGAA 0.0381
AGGCGAAT -0.0418
GCTCACAC -0.0528
CAGAGAAA 0.0855
AAGTCGGC -0.165
ACCAGTCG 0.0254
AATTTACG 0.0825
AGCGTGTG 0.165
CAACGACG 0.0887
ATAAACGA 0.136
ACGAAAGG -0.0255
CATGCCCA -0.063
CCCTAATC -0.114
GCGGCCGC -0.272
ACGAAGTC 0.00684
ATCTTGGA 0.0382
AGGCCAAC -0.05
CGAGACAC 0.0289
CAGACCGG -0.146
CTGAATCA 0.086
GCATGGAC -0.00539
CGATCGAG -0.0588
GCATAACA 0.255
ATTGATGC 0.0751
ACTTATCT 0.143
ACGGTTTA 0.0386
CCGGCACA -0.0919
ATATAAAA 0.0961
AGAGGCCG -0.207
GTGAACGA 0.085
GCTTTTAC 0.158
CCATCGGA -0.166
CTCGTGAA 0.027
GACCTAGC -0.155
GCGGTTAA -0.0974
CACGAGAA 0.0323
CACGGCAG -0.0642
CGTCCGAA -0.115
GTCTTTTA 0.0341
AACGGCGC -0.211
AGATTTTC 0.0235
CGTCAGAC -0.0541
ATAGGTCC 0.0255
ATGATGTG 0.0894
AACGTAAA 0.103
CTGCGCTC -0.226
AGTGCCCG -0.193
AACCCTAA 0.0678
AGCCCCTG -0.19
ATAGAAGG -0.0699
GCAAGTGC -0.0754
GACGTCAA 0.0555
ACGCGTCT -0.083
GCACGGGC -0.224
ATCTTTTA 0.055
CTGAATGA 0.0197
AAAGCCGT -0.0663
AAAACTGC 0.0115
CTAGGAAC -0.0383
CTACAGCC -0.0503
ACAGGGCC -0.0239
ACGGTCGA -0.0338
CGCATGCG -0.112
AACCGTTG 0.0996
CGTGGACA 0.101
GGAGATCA -0.0646
ATGGGGCA -0.128
CAACTGAA 0.0384
CCGCCGAA -0.138
ACCCAGGC -0.17
CTCGCAAG -0.0376
AGTATTAA 0.16
AGTGATGA 0.111
GTGAGTTA 0.00272
CGCGGGAA -0.147
GGACATAA 0.211
AGCACCCC -0.192
ACATCTAT 0.236
CTCCAGAA -0.0942
AACAAGTC 0.278
CTCGGGGA -0.097
AAGACATA 0.229
CAACACCC 0.104
AGGCTAAC 0.0453
CGGCGGTC -0.242
CCTCACTC -0.0788
ATAATAAG 0.145
CTCGCCCC -0.264
